From the supplement of paper PMC10126150
Sequences with one replicate were seen in a single cluster, so their values are uncertain.

Test system: ATP
Assay: switch fluorescence ratio, 500 uM ATP over buffer (Cy3 cluster intensity, sum of 5 cycles each) (fold (ratio)); higher = stronger signal-on switching upon ATP binding; sequences stand for … in TCGTCGGCAGCGTCAGATGTGTATAAGAGACAGTTTTTTTTTTTTTTTTTTTTTTTTT…TC
Conditions: aptamer strand: ATP DNA aptamer (quencher-CACCTGGGGGAGTATTGCGGAGGAAGG + anchor), 100 nM annealed; ATP concentration: 500 uM; one replicate
In short: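 Cy3-labelled switching-strand clusters on a modified Illumina MiSeq flow-cell were annealed to 100 nM quencher-labelled ATP aptamer and imaged first in selection buffer, then after 15 min with 500 uM ATP at 22 °C. NaOH stripping and re-annealing separated each of five buffer/ATP cycles, and clusters outside 100-1000 RFU were excluded. The fluorescence ratio sums target-cycle Cy3 intensity over buffer-cycle Cy3 intensity per cluster and averages it per switch-domain sequence.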
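Note: ATP exposure 15 min at 22 °C before imaging.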

Row | Sequence | switch fluorescence ratio
1 | GCTCGGTTAC | 2.02
2 | TTCCTCTACC | 1.17
3 | TAGGGTGCAA | 1.03
4 | ACCAGGTTTT | 1.14
5 | ATTAAACCCT | 1.2
6 | AGTCCGGAC | 1.02
7 | TCGTCAGTTG | 1.03
8 | ACAATATGC | 1.1
9 | GTTTGAGCAT | 0.999
10 | TCGTTTTATG | 0.986
11 | GCTAGAGCCG | 1.11
12 | CCCCGACAT | 2.78
13 | TGCTAGCGGC | 0.986
14 | GGGGACCACG | 1.02
15 | AATCCCCGCC | 1.77
16 | AGTCGCCGT | 0.978
17 | CCTTGCTGGA | 0.987
18 | TAGGAGAGCA | 0.985
19 | CTAGATTTCT | 1.04
20 | TCACTATCGT | 1.04
21 | ACAAAGCGGG | 1.02
22 | GTAGGTGTTT | 1.03
23 | CAATTGTCTT | 1.01

Row | Sequence | switch fluorescence ratio
24 | TGCCCAGGGC | 1.02
25 | TTTGCATCGA | 1.03
26 | CGTCATTGTT | 0.98
27 | CCCCTATGTC | 1
28 | AATTGCAAAG | 1
29 | GGTTTTTCC | 0.975
30 | TGGATGTCGA | 0.974
31 | GCTTACCGGG | 1.05
32 | GGTCGAGACT | 1
33 | CGTCATCGTA | 0.994
34 | TAGGCCAACT | 0.996
35 | TTCTGGAGAT | 1.01
36 | AGTTTTCAG | 1
37 | GCGAAGGCGC | 1.03
38 | TGAAGCCGGT | 0.949
39 | GACCACCAAT | 1.09
40 | GATTGTTATC | 1
41 | CGTCGCGCGG | 1.06
42 | GCGGCCTGG | 1
43 | AGTTGTATCA | 0.944
44 | TTCCATGGTA | 0.986
45 | CCAGCTGTCG | 1.06
46 | GAGACCATG | 0.969

Row | Sequence | switch fluorescence ratio
47 | CCAGTACGTT | 1.04
48 | GATTTAAGG | 0.969
49 | CTCTTTGATG | 0.97
50 | ATGATGACTT | 0.949
51 | GTATGGGAGC | 0.99
52 | CGTGCTCGGG | 1.05
53 | TTAAGGGTG | 1.03
54 | GTGTCAACGG | 0.992
55 | TGGGGAGCGA | 0.981
56 | ATAATAGACG | 1.07
57 | CGACATCACT | 1.32
58 | GCGCCTGGA | 1.01
59 | ATAATACTTG | 0.996
60 | TGTTGGTCGC | 0.972
61 | ATGGCTTC | 0.967
62 | CGGCATGGCT | 1.1
63 | TAACTTGTT | 1
64 | AGCCGGATAT | 0.989
65 | GGGTTCTTCT | 1.06
66 | GAAATGCTGG | 0.968
67 | GTGATACGTT | 0.987
68 | TCCTTATAGT | 1.04
69 | TGTGTCGTAG | 0.948

Row | Sequence | switch fluorescence ratio
70 | GACAACCGCC | 1.43
71 | ACCGGGTTTC | 1.03
72 | TGAGAAGAAG | 0.992
73 | GGAGAAATCC | 1.21
74 | AATGATTATT | 1.02
75 | CATCATCTTT | 1.02
76 | CGCCTGATTG | 0.958
77 | GTCGATTGGT | 0.941
78 | GAAGTACAAC | 1.19
79 | ACCTTAAGAT | 1.05
80 | GGTGTAGCCG | 0.979
81 | TGTTGCTGAT | 0.976
82 | TACTTGTAGG | 0.943
83 | CGGAACCTGT | 0.998
84 | GTTAATGAGT | 0.967
85 | ATAGTATGAA | 1.04
86 | TCGCTAGTCA | 1.02
87 | GACATACCTT | 0.958
88 | AGTGCTCATG | 0.993
89 | ATGTGGATCA | 1.01
90 | CGATGCCGCT | 1.03
91 | TACCCGCCGG | 1.04
92 | TGATACTGTT | 1

Row | Sequence | switch fluorescence ratio
93 | GAAGAATCCA | 0.983
94 | AAATGCTGCG | 1.01
95 | CGCGCATCTC | 2.13
96 | AGCATGACTA | 1.07
97 | CTTTTCGGTT | 0.983
98 | TGAAGGCTTC | 0.989
99 | GGGGTGGGCC | 0.999
100 | CCACGTTTAC | 2.21
101 | TGAGGCATCC | 1.03
102 | GTGGGTAAGT | 0.99
103 | AGGTTGATTG | 0.986
104 | ACATAACTT | 1.17
105 | TAAAAACCCG | 1.05
106 | GCTAGTACGT | 1.04
107 | TTACCCAGTA | 1.02
108 | TGGATTGGAC | 0.985
109 | AATCGCCGTC | 1.02
110 | ACCTAGCACG | 1.04
111 | ACGCCCGCAG | 1.47
112 | CTACAACGTG | 0.995
113 | GCCCGATGCG | 0.965
114 | AAGCGGATTG | 1
115 | GTATTACACG | 0.984

Row | Sequence | switch fluorescence ratio
116 | ATTGAATAAT | 0.977
117 | GCATTTTTTA | 0.967
118 | AAAAAAAAGT | 0.978
119 | CCAACGGCTG | 1.01
120 | CACGGATGAC | 1.11
121 | GGCTACGTAT | 1.08
122 | TGGGGGGCT | 1.05
123 | GCCCACGAAG | 0.98
124 | ACTTTATCAG | 1.05
125 | ACTGCCACGT | 1.26
126 | ATCCCGTGGC | 0.969
127 | CCTCTTATTG | 1.06
128 | TTAATCCATC | 0.989
129 | GTCGTAGGTA | 0.989
130 | AACCACCCTT | 1.07
131 | AGTTCCTTA | 1
132 | TTGAGTAGGG | 0.977
133 | ATTATGGATA | 0.991
134 | CTGGGGGGA | 1.01
135 | TCAGCGAAGC | 0.978
136 | TTCGGTGCGT | 1
137 | TTGATGTCGA | 1.03
138 | GTTAAAAGCT | 1.02

Row | Sequence | switch fluorescence ratio
139 | TATTGAGGAC | 0.972
140 | TACGATCACA | 1.11
141 | TATTTAAGGC | 0.976
142 | GCATCGAGAG | 0.986
143 | GATCCCCAGG | 5.16
144 | TGACCAAAAT | 1.08
145 | CAGCGTTTTG | 1.04
146 | GGGCGATTGC | 0.979
147 | ACTTGCCTAT | 0.943
148 | CTTGTCCTTA | 1.02
149 | AATCGCGTAC | 2.66
150 | AGGTCTTCAC | 1.02
151 | CGTAACCTAT | 0.982
152 | TCCCACAAAC | 2
153 | TGTAGAAAAA | 0.966
154 | TTTGTATAAT | 0.981
155 | ATAACTAGGA | 0.992
156 | ATCGTCGGGT | 0.97
157 | ACTAAGGTAG | 1.01
